This note sets out measurements from the supplement of paper PMC12230231.

± gives the standard deviation of the averaged measurements. Restriction of a single-cycle SIVsab GFP reporter by TRIM5α v1-loop variants in CRFK cells. Human variants: read share among cells still uninfected after two challenges over input, higher = gained restriction. Rhesus variants: share among infected cells over input, higher = lost restriction. Reporter dose not given per row. No active / inactive call per row; the paper calls a change when both replicates lie above its controls (mean + 2 SD of stop or wild-type variants, or the top frameshift score). Residues outside the varied loop are taken from Swiss-Prot. The paper reads the human single-substitution scores as noise; they and the rhesus combinations repeat poorly (rank correlation 0.3 to 0.4), indel scores repeat only for the top variants, rhesus substitutions well (0.9).

The subject of the data set is SIVsab (simian immunodeficiency virus of sabaeus monkeys), single-cycle GFP reporter, in CRFK cells. Briefly: enrichment among uninfected cells over input (fold); higher = stronger restriction. The following applies: library: insertions and deletions. How it is done: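 Pools of CRFK cells expressing variants of the TRIM5α v1 loop were challenged with the single-cycle reporter, sorted by GFP and sequenced; mean of two replicates.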
Sequence “MASGILVNVKEEVTCPICLELLTQPLSLDCGHSFCQACLTANHKKSMLDKGESSCPVCRISYQPENIRPNRHVANIVEKLREVKLSPEGQKVDHCARHGEKLLLFCQEDGKVICWLCERSQEHRGHHTFLTEEVAREYQVKLQAALEMLRQKQQEAEELEADIREEKASWKTQIQYDKTNVLADFEQLRDILDWEESNELQNLEKEEEDILKSLTNSETEMVQQTQSLRELISDLEHRLQGSVMELLQGVDGVIKRTENVTLKKPETFPKNQRRVFRAPDLKGMLEVFRELTDVRRYWVDVTVAPNNISCAVISEDKRQVSSPKPQIARGTRYQTFVNFNYCTGILGSQSITSGKHYWEVDVSKKTAWILGVCAGFQPDAMCNIEKNENYQPKYGYWVIGLEEGVKCSAFQDSSFHTPSVPFIVPLSVIICPDRVGVFLDYEACTVSFFNITNHGFLIYKFSHCSFSQPVFPYLNPRKCGVPMTLCSPSS [human TRIM5α, 3-codon deletion at 328]” had an enrichment of 0.991 ± 0.61.

In turn, “MASGILVNVKEEVTCPICLELLTQPLSLDCGHSFCQACLTANHKKSMLDKGESSCPVCRISYQPENIRPNRHVANIVEKLREVKLSPEGQKVDHCARHGEKLLLFCQEDGKVICWLCERSQEHRGHHTFLTEEVAREYQVKLQAALEMLRQKQQEAEELEADIREEKASWKTQIQYDKTNVLADFEQLRDILDWEESNELQNLEKEEEDILKSLTNSETEMVQQTQSLRELISDLEHRLQGSVMELLQGVDGVIKRTENVTLKKPETFPKNQRRVFRAPDLKGMLEVFRELTDVRRYWVDVTVAPNNISCAVISEDKRQVSSPKPQIGARGTRYQTFVNFNYCTGILGSQSITSGKHYWEVDVSKKTAWILGVCAGFQPDAMCNIEKNENYQPKYGYWVIGLEEGVKCSAFQDSSFHTPSVPFIVPLSVIICPDRVGVFLDYEACTVSFFNITNHGFLIYKFSHCSFSQPVFPYLNPRKCGVPMTLCSPSS [human TRIM5α, 2-codon deletion at 328]” came in with an enrichment of 0.495 ± 0.043.

“MASGILVNVKEEVTCPICLELLTQPLSLDCGHSFCQACLTANHKKSMLDKGESSCPVCRISYQPENIRPNRHVANIVEKLREVKLSPEGQKVDHCARHGEKLLLFCQEDGKVICWLCERSQEHRGHHTFLTEEVAREYQVKLQAALEMLRQKQQEAEELEADIREEKASWKTQIQYDKTNVLADFEQLRDILDWEESNELQNLEKEEEDILKSLTNSETEMVQQTQSLRELISDLEHRLQGSVMELLQGVDGVIKRTENVTLKKPETFPKNQRRVFRAPDLKGMLEVFRELTDVRRYWVDVTVAPNNISCAVISEDKRQVSSPKPQIGTRYQTFVNFNYCTGILGSQSITSGKHYWEVDVSKKTAWILGVCAGFQPDAMCNIEKNENYQPKYGYWVIGLEEGVKCSAFQDSSFHTPSVPFIVPLSVIICPDRVGVFLDYEACTVSFFNITNHGFLIYKFSHCSFSQPVFPYLNPRKCGVPMTLCSPSS [human TRIM5α, 5-codon deletion at 328]” came in with an enrichment of 0.31 ± 0.083.

“MASGILVNVKEEVTCPICLELLTQPLSLDCGHSFCQACLTANHKKSMLDKGESSCPVCRISYQPENIRPNRHVANIVEKLREVKLSPEGQKVDHCARHGEKLLLFCQEDGKVICWLCERSQEHRGHHTFLTEEVAREYQVKLQAALEMLRQKQQEAEELEADIREEKASWKTQIQYDKTNVLADFEQLRDILDWEESNELQNLEKEEEDILKSLTNSETEMVQQTQSLRELISDLEHRLQGSVMELLQGVDGVIKRTENVTLKKPETFPKNQRRVFRAPDLKGMLEVFRELTDVRRYWVDVTVAPNNISCAVISEDKRQVSSPKPQIIGARGTRYQTFVNFNYCTGILGSQSITSGKHYWEVDVSKKTAWILGVCAGFQPDAMCNIEKNENYQPKYGYWVIGLEEGVKCSAFQDSSFHTPSVPFIVPLSVIICPDRVGVFLDYEACTVSFFNITNHGFLIYKFSHCSFSQPVFPYLNPRKCGVPMTLCSPSS [human TRIM5α, 1-codon deletion at 329]” had an enrichment of 0.706 ± 0.27.

The sequence “MASGILVNVKEEVTCPICLELLTQPLSLDCGHSFCQACLTANHKKSMLDKGESSCPVCRISYQPENIRPNRHVANIVEKLREVKLSPEGQKVDHCARHGEKLLLFCQEDGKVICWLCERSQEHRGHHTFLTEEVAREYQVKLQAALEMLRQKQQEAEELEADIREEKASWKTQIQYDKTNVLADFEQLRDILDWEESNELQNLEKEEEDILKSLTNSETEMVQQTQSLRELISDLEHRLQGSVMELLQGVDGVIKRTENVTLKKPETFPKNQRRVFRAPDLKGMLEVFRELTDVRRYWVDVTVAPNNISCAVISEDKRQVSSPKPQIIGTRYQTFVNFNYCTGILGSQSITSGKHYWEVDVSKKTAWILGVCAGFQPDAMCNIEKNENYQPKYGYWVIGLEEGVKCSAFQDSSFHTPSVPFIVPLSVIICPDRVGVFLDYEACTVSFFNITNHGFLIYKFSHCSFSQPVFPYLNPRKCGVPMTLCSPSS [human TRIM5α, 4-codon deletion at 329]” had an enrichment of 0.42172 ± 0.00014.

For the sequence “MASGILVNVKEEVTCPICLELLTQPLSLDCGHSFCQACLTANHKKSMLDKGESSCPVCRISYQPENIRPNRHVANIVEKLREVKLSPEGQKVDHCARHGEKLLLFCQEDGKVICWLCERSQEHRGHHTFLTEEVAREYQVKLQAALEMLRQKQQEAEELEADIREEKASWKTQIQYDKTNVLADFEQLRDILDWEESNELQNLEKEEEDILKSLTNSETEMVQQTQSLRELISDLEHRLQGSVMELLQGVDGVIKRTENVTLKKPETFPKNQRRVFRAPDLKGMLEVFRELTDVRRYWVDVTVAPNNISCAVISEDKRQVSSPKPQIIIIYGARGTRYQTFVNFNYCTGILGSQSITSGKHYWEVDVSKKTAWILGVCAGFQPDAMCNIEKNENYQPKYGYWVIGLEEGVKCSAFQDSSFHTPSVPFIVPLSVIICPDRVGVFLDYEACTVSFFNITNHGFLIYKFSHCSFSQPVFPYLNPRKCGVPMTLCSPSS [human TRIM5α, 2-codon duplication at 327]”, the enrichment came out at 0.867 ± 0.15.

The sequence “MASGILVNVKEEVTCPICLELLTQPLSLDCGHSFCQACLTANHKKSMLDKGESSCPVCRISYQPENIRPNRHVANIVEKLREVKLSPEGQKVDHCARHGEKLLLFCQEDGKVICWLCERSQEHRGHHTFLTEEVAREYQVKLQAALEMLRQKQQEAEELEADIREEKASWKTQIQYDKTNVLADFEQLRDILDWEESNELQNLEKEEEDILKSLTNSETEMVQQTQSLRELISDLEHRLQGSVMELLQGVDGVIKRTENVTLKKPETFPKNQRRVFRAPDLKGMLEVFRELTDVRRYWVDVTVAPNNISCAVISEDKRQVSSPKPQIIIYGARGTRYQTFVNFNYCTGILGSQSITSGKHYWEVDVSKKTAWILGVCAGFQPDAMCNIEKNENYQPKYGYWVIGLEEGVKCSAFQDSSFHTPSVPFIVPLSVIICPDRVGVFLDYEACTVSFFNITNHGFLIYKFSHCSFSQPVFPYLNPRKCGVPMTLCSPSS [human TRIM5α, 1-codon duplication at 327]” returned an enrichment of 0.627 ± 0.11.

Sequence “MASGILVNVKEEVTCPICLELLTQPLSLDCGHSFCQACLTANHKKSMLDKGESSCPVCRISYQPENIRPNRHVANIVEKLREVKLSPEGQKVDHCARHGEKLLLFCQEDGKVICWLCERSQEHRGHHTFLTEEVAREYQVKLQAALEMLRQKQQEAEELEADIREEKASWKTQIQYDKTNVLADFEQLRDILDWEESNELQNLEKEEEDILKSLTNSETEMVQQTQSLRELISDLEHRLQGSVMELLQGVDGVIKRTENVTLKKPETFPKNQRRVFRAPDLKGMLEVFRELTDVRRYWVDVTVAPNNISCAVISEDKRQVSSPKPQIIIYGARGTRYQTFVNFNYCTGILGSQSITSGKHYWEVDVSKKTAWILGVCAGFQPDAMCNIEKNENYQPKYGYWVIGLEEGVKCSAFQDSSFHTPSVPFIVPLSVIICPDRVGVFLDYEACTVSFFNITNHGFLIYKFSHCSFSQPVFPYLNPRKCGVPMTLCSPSS [human TRIM5α, 1-codon duplication at 328]” had an enrichment of 0.519 ± 0.28.

“MASGILVNVKEEVTCPICLELLTQPLSLDCGHSFCQACLTANHKKSMLDKGESSCPVCRISYQPENIRPNRHVANIVEKLREVKLSPEGQKVDHCARHGEKLLLFCQEDGKVICWLCERSQEHRGHHTFLTEEVAREYQVKLQAALEMLRQKQQEAEELEADIREEKASWKTQIQYDKTNVLADFEQLRDILDWEESNELQNLEKEEEDILKSLTNSETEMVQQTQSLRELISDLEHRLQGSVMELLQGVDGVIKRTENVTLKKPETFPKNQRRVFRAPDLKGMLEVFRELTDVRRYWVDVTVAPNNISCAVISEDKRQVSSPKPQIIKPQIIYGARGTRYQTFVNFNYCTGILGSQSITSGKHYWEVDVSKKTAWILGVCAGFQPDAMCNIEKNENYQPKYGYWVIGLEEGVKCSAFQDSSFHTPSVPFIVPLSVIICPDRVGVFLDYEACTVSFFNITNHGFLIYKFSHCSFSQPVFPYLNPRKCGVPMTLCSPSS [human TRIM5α, 5-codon duplication at 324]” came in with an enrichment of 0.781 ± 0.25.

On to “MASGILVNVKEEVTCPICLELLTQPLSLDCGHSFCQACLTANHKKSMLDKGESSCPVCRISYQPENIRPNRHVANIVEKLREVKLSPEGQKVDHCARHGEKLLLFCQEDGKVICWLCERSQEHRGHHTFLTEEVAREYQVKLQAALEMLRQKQQEAEELEADIREEKASWKTQIQYDKTNVLADFEQLRDILDWEESNELQNLEKEEEDILKSLTNSETEMVQQTQSLRELISDLEHRLQGSVMELLQGVDGVIKRTENVTLKKPETFPKNQRRVFRAPDLKGMLEVFRELTDVRRYWVDVTVAPNNISCAVISEDKRQVSSPKPQIIPQIIYGARGTRYQTFVNFNYCTGILGSQSITSGKHYWEVDVSKKTAWILGVCAGFQPDAMCNIEKNENYQPKYGYWVIGLEEGVKCSAFQDSSFHTPSVPFIVPLSVIICPDRVGVFLDYEACTVSFFNITNHGFLIYKFSHCSFSQPVFPYLNPRKCGVPMTLCSPSS [human TRIM5α, 4-codon duplication at 325]”, for which the enrichment came to 1.61 ± 0.11.

“MASGILVNVKEEVTCPICLELLTQPLSLDCGHSFCQACLTANHKKSMLDKGESSCPVCRISYQPENIRPNRHVANIVEKLREVKLSPEGQKVDHCARHGEKLLLFCQEDGKVICWLCERSQEHRGHHTFLTEEVAREYQVKLQAALEMLRQKQQEAEELEADIREEKASWKTQIQYDKTNVLADFEQLRDILDWEESNELQNLEKEEEDILKSLTNSETEMVQQTQSLRELISDLEHRLQGSVMELLQGVDGVIKRTENVTLKKPETFPKNQRRVFRAPDLKGMLEVFRELTDVRRYWVDVTVAPNNISCAVISEDKRQVSSPKPQIIQIIYGARGTRYQTFVNFNYCTGILGSQSITSGKHYWEVDVSKKTAWILGVCAGFQPDAMCNIEKNENYQPKYGYWVIGLEEGVKCSAFQDSSFHTPSVPFIVPLSVIICPDRVGVFLDYEACTVSFFNITNHGFLIYKFSHCSFSQPVFPYLNPRKCGVPMTLCSPSS [human TRIM5α, 3-codon duplication at 326]” came in with an enrichment of 0.3609 ± 0.0029.

“MASGILVNVKEEVTCPICLELLTQPLSLDCGHSFCQACLTANHKKSMLDKGESSCPVCRISYQPENIRPNRHVANIVEKLREVKLSPEGQKVDHCARHGEKLLLFCQEDGKVICWLCERSQEHRGHHTFLTEEVAREYQVKLQAALEMLRQKQQEAEELEADIREEKASWKTQIQYDKTNVLADFEQLRDILDWEESNELQNLEKEEEDILKSLTNSETEMVQQTQSLRELISDLEHRLQGSVMELLQGVDGVIKRTENVTLKKPETFPKNQRRVFRAPDLKGMLEVFRELTDVRRYWVDVTVAPNNISCAVISEDKRQVSSPKPQIIQTFVNFNYCTGILGSQSITSGKHYWEVDVSKKTAWILGVCAGFQPDAMCNIEKNENYQPKYGYWVIGLEEGVKCSAFQDSSFHTPSVPFIVPLSVIICPDRVGVFLDYEACTVSFFNITNHGFLIYKFSHCSFSQPVFPYLNPRKCGVPMTLCSPSS [human TRIM5α, 8-codon deletion at 329]”: the enrichment was 1.14 ± 1.6.
